Measurements: PubChem BioAssay (NCATS)
Inconclusive means that the source gave no clear call. Such entries were picked first, then a sample of the others. Potencies beside an inconclusive call are fits to weak or partial responses and may not hold up. “Side channel” marks fits to a control or component signal instead of the main read-out. Active and inactive are the calls of the source. The call rests on the fitted dose curve; in most records, active means well fitted activation curve with a large enough effect in the signal ratio, with a control signal flat (not every such curve was filed as active); inconclusive means small, poorly fitted or top-dose-only effect, or effect the other way, or a change in a side signal; inactive means flat fitted curve, though single readings scatter; the % refers to the signal ratio.

Assay: qHTS Assay for Identification of Small Molecule Agonists for Hypoxia Response Element Signaling Pathway (AID 914); on activation: top concentration of the series differs between compounds; % of control where 0% means no effect
Details: ME-180 (cervical carcinoma) HRE-bla reporter, beta-lactamase ratio, CoCl2, 17 h; activation: active compounds read high
How it was run: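 Compounds in a titration series were added to ME-180 reporter cells alongside an EC50 level of CoCl2. After 17 hours, beta-lactamase activity was read as the 460nm/530nm emission ratio of CCF4, giving AC50 values.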
Potency means the concentration at half of the fitted maximal effect; tags describe the fitted curve by direction and shape or compound fluorescence and quenching.

**Q.** Which Potency does the source give for CN1C2C=C3C(C#N)=C(N)C(C#N)(C#N)[C@@H](c4ccc(Cl)cc4)[C@@H]3C1CC2 (stereo not given in full) here?
**A.** Its Potency is inconclusive: 5.01 µM [inhibitor, partial curve].

**Q.** With Cn1c(OCc2ccco2)nc2c1c(=O)n(Cc1ccc(Cl)c(Cl)c1)c(=O)n2C as the compound, how does the Potency read?
**A.** Its Potency is inconclusive: 12.6 µM [inhibitor, single point].

**Q.** With CCCSc1nnc2n(C)c(=O)c3c4c(sc3n12)CCC4 as the compound, how does the activation read?
**A.** The activation was inconclusive: -27.2%.

**Q.** With CC(=O)N1CCC[C@@]2(CCN(c3ccccc3)C2)C1 as the compound, how does the Potency read?
**A.** The Potency was inconclusive: 3.98 µM [inhibitor, single point].

**Q.** For CC(=O)c1cc(CN2CCCCC2)cc(OC(C)C)c1, which activation is on record?
**A.** Its activation is inconclusive: 10.8%.

**Q.** For COC(=O)/C=c1/s/c(=C(\C#N)C(=O)NCc2ccco2)n(-c2ccccc2)c1=O, which activation is on record?
**A.** Its activation is inconclusive: -25.8%.

**Q.** Which Potency does the source give for CC1(C)Cc2nc(N)c(C(=O)NCCO)cc2CO1 here?
**A.** Its Potency is inconclusive: 12.6 µM [activator, single point].

**Q.** With N[C@H](C(=O)O)[C@H](N)C(=O)O as the compound, how does the activation read?
**A.** Its activation is inconclusive: 4.97%.

**Q.** With CCOC(=O)c1sc2c(c1C)c(=O)c(C(=O)OCC)cn2CC as the compound, how does the activation read?
**A.** Its activation is inactive: 16.2%.

**Q.** With Nc1ccn([C@H]2O[C@@H](COP(=O)(O)O)[C@@H](O)[C@H]2O)c(=O)n1 as the compound, how does the Potency read?
**A.** Its Potency is inconclusive: 2 µM [inhibitor, partial curve, poor fit].

**Q.** With COc1ccccc1CN1CCCC2(CCN(S(=O)(=O)c3ccccc3)CC2)C1 as the compound, how does the activation read?
**A.** Its activation is inactive: -6.58%.

**Q.** With COCCCNC(=O)c1c(N)n(/N=C/c2cccnc2)c2nc3ccccc3nc12 as the compound, how does the Potency read?
**A.** Its Potency is active: 10 µM.

**Q.** For CCCn1c(SCC#N)nc2c(c1=O)C1(CCCC1)Cc1ccccc1-2, which Potency is on record?
**A.** The Potency was inconclusive: 10 µM [activator, partial curve].

**Q.** Which Potency does the source give for Cc1[nH]nc2c1C(CCc1ccccc1)C(C#N)=C(N)O2 (stereo not given) here?
**A.** The Potency was inconclusive: 12.6 µM [inhibitor, single point].

**Q.** For Cn1c(NCc2ccccc2)nc2c1c(=O)n(Cc1ccccc1)c(=O)n2C, which Potency is on record?
**A.** The Potency was inconclusive: 10 µM [inhibitor, partial curve].

**Q.** For CC1(C)CCN(Cc2ccccc2)C1CC#N (stereo not given), which activation is on record?
**A.** Its activation is inactive: 7.94%.

**Q.** For Nc1ncnc2c1ncn2[C@H]1O[C@@H](C(=O)O)[C@@H](O)[C@H]1O, which Potency is on record?
**A.** Its Potency is inconclusive: 0.398 µM [cytotoxic, side channel, single point].

**Q.** Which Potency does the source give for COCCNC(=O)c1c(N)n(/N=C/c2cccs2)c2nc3ccccc3nc12 here?
**A.** The Potency was active: 10 µM.

**Q.** With Fc1ccc(-c2cnc[nH]2)cc1 as the compound, how does the activation read?
**A.** The activation was inactive: 14%.

**Q.** Which activation does the source give for O=C(NC1CCCCC1)N1CCSC1=Nc1ccccc1 here?
**A.** The activation was inconclusive: -31.3%.

**Q.** With Cc1ccc(CNC(=O)c2cc3c(=O)n4ccccc4nc3n(Cc3ccco3)c2=N)cc1 as the compound, how does the Potency read?
**A.** Its Potency is active: 5.01 µM.

**Q.** For O=C(O)CCCCCN1C(=O)CCC1=O, which activation is on record?
**A.** The activation was inconclusive: 16.4%.

**Q.** For CCCCOC(=O)c1[nH]c(C)c(C(=O)OC)c1C, which activation is on record?
**A.** The activation was inconclusive: 22.4%.

**Q.** With Cn1c(=O)c2c3c(sc2n2c(SCc4ccccc4)nnc12)CCCC3 as the compound, how does the Potency read?
**A.** Its Potency is inconclusive: 3.98 µM [inhibitor, full curve].

**Q.** For CCCCCNC(=O)c1c(N)n(/N=C/c2ccco2)c2nc3ccccc3nc12, which Potency is on record?
**A.** Its Potency is active: 7.94 µM.

**Q.** With C/C(=N/Nc1nc(C)cc(=O)[nH]1)C(=O)O as the compound, how does the activation read?
**A.** The activation was inconclusive: -26.1%.

**Q.** Which activation does the source give for CC(C)[C@]1(Cl)CC[C@@H]2[C@]3(C)CCC[C@@](C)(C(=O)O)[C@H]3C[C@H](Cl)[C@@]2(Cl)[C@H]1Cl here?
**A.** Its activation is inconclusive: -8.74%.

**Q.** With CC(C)OC(=O)C(C#N)c1nc2ccccc2nc1N1CCN(Cc2ccc3c(c2)OCO3)CC1 (stereo not given) as the compound, how does the Potency read?
**A.** The Potency was inconclusive: 6.31 µM [inhibitor, partial curve].

**Q.** Which Potency does the source give for C=C(C)CSc1nnc2n(C)c(=O)c3c4c(sc3n12)CCC4 here?
**A.** Its Potency is inconclusive: 2.51 µM [inhibitor, full curve].

**Q.** With NC(=O)C[C@H](N)C(N)=O as the compound, how does the activation read?
**A.** Its activation is inactive: 9.57%.

**Q.** With CCOc1ccccc1N1CCN(c2nc3ccccc3nc2C(C#N)C(=O)OC(C)C)CC1 (stereo not given) as the compound, how does the Potency read?
**A.** Its Potency is inconclusive: 10 µM [cytotoxic, side channel, partial curve].

**Q.** With N#CC1=C(N)N2C(=C(C#N)C1c1ccccc1)Sc1ccccc12 (stereo not given) as the compound, how does the activation read?
**A.** The activation was inconclusive: 4.52%.

**Q.** Which activation does the source give for O=C(c1cc(C(F)(F)F)cc(C(F)(F)F)c1)N1CCC2(CCN(Cc3ccccc3)CC2)CC1 here?
**A.** The activation was inactive: 4.02%.

**Q.** For CC1(C)C2CCC1(C)C(NC(=O)CCN1CCCCC1)C2 (stereo not given), which activation is on record?
**A.** Its activation is inconclusive: -44.8%.

**Q.** Which Potency does the source give for CCOc1ccc2nc(NC(NC(=O)CC)(C(=O)OC)C(F)(F)F)sc2c1 (stereo not given) here?
**A.** The Potency was inconclusive: 10 µM [inhibitor, single point].
